# Measured values from the supplement of paper PMC8728848.
# Some of the results follow.
# Assays:
# Experiment in all cases: glycan array binding signal (z-score within array); higher = stronger binding
# Details in all cases: glycan notation: IUPAC condensed, linker removed
# [1] = biological target: Glc(b1-4)Glc
# Summary of the method: (§1)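 From the Consortium for Functional Glycomics database, 3228 arrays were curated, keeping only those whose protein sequence was available. Binding is given as a within-array Z-score averaged across arrays sharing a protein sequence and across linkers. Negative Z-scores can be read as non-binding.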
# [2] = biological target: Glc(b1-6)Glc
# Summary of the method: as §1
# [3] = biological target: GlcA(b1-3)Gal
# Summary of the method: as §1
# [4] = biological target: GlcA(b1-3)GlcNAc
# Summary of the method: as §1
# [5] = biological target: GlcA(b1-6)Gal
# Summary of the method: as §1
# [6] = biological target: GlcA3S(b1-3)Gal(b1-4)GlcNAc(b1-2)Man
# Summary of the method: as §1
# [7] = biological target: GlcA3S(b1-3)Gal(b1-4)GlcNAc(b1-3)Gal(b1-4)Glc
# Summary of the method: as §1
# [8] = biological target: GlcNAc(a1-3)Gal(b1-4)GlcNAc
# Summary of the method: as §1
# [9] = biological target: GlcNAc(a1-4)Gal(b1-3)GlcNAc
# Summary of the method: as §1
# [10] = biological target: GlcNAc(a1-4)Gal(b1-4)GalNAc
# Summary of the method: as §1
# [11] = biological target: GlcNAc(a1-4)Gal(b1-4)GlcNAc
# Summary of the method: as §1
# [12] = biological target: GlcNAc(a1-4)Gal(b1-4)GlcNAc(b1-3)Gal(b1-4)Glc
# Summary of the method: as §1
# [13] = biological target: GlcNAc(a1-4)Gal(b1-4)GlcNAc(b1-3)Gal(b1-4)GlcNAc
# Summary of the method: as §1
# [14] = biological target: GlcNAc(a1-4)Gal(b1-4)GlcNAc(b1-3)Gal(b1-4)GlcNAc(b1-3)Gal(b1-4)GlcNAc
# Summary of the method: as §1
# [15] = biological target: GlcNAc(a1-4)Gal(b1-4)GlcNAc(b1-3)Gal(b1-4)[Fuc(a1-3)]GlcNAc(b1-3)Gal(b1-4)[Fuc(a1-3)]GlcNAc
# Summary of the method: as §1
# [16] = biological target: GlcNAc(a1-6)Gal(b1-4)GlcNAc
# Summary of the method: as §1
# [17] = biological target: GlcNAc(b1-2)Gal(b1-3)GalNAc
# Summary of the method: as §1
# [18] = biological target: GlcNAc(b1-2)Man(a1-3)[GlcNAc(b1-2)Man(a1-6)]Man(b1-4)GlcNAc(b1-4)GlcNAc
# Summary of the method: as §1
# [19] = biological target: GlcNAc(b1-2)Man(a1-3)[GlcNAc(b1-2)Man(a1-6)]Man(b1-4)GlcNAc(b1-4)[Fuc(a1-6)]GlcNAc
# Summary of the method: as §1
# [20] = biological target: GlcNAc(b1-2)Man(a1-3)[GlcNAc(b1-4)][GlcNAc(b1-2)Man(a1-6)]Man(b1-4)GlcNAc(b1-4)GlcNAc
# Summary of the method: as §1
# [21] = biological target: GlcNAc(b1-2)Man(a1-3)[GlcNAc(b1-4)][GlcNAc(b1-2)Man(a1-6)]Man(b1-4)GlcNAc(b1-4)[Fuc(a1-6)]GlcNAc
# Summary of the method: as §1
# [22] = biological target: GlcNAc(b1-2)[GlcNAc(b1-4)]Man(a1-3)[GlcNAc(b1-2)Man(a1-6)]Man(b1-4)GlcNAc(b1-4)GlcNAc
# Summary of the method: as §1
# [23] = biological target: GlcNAc(b1-2)[GlcNAc(b1-4)]Man(a1-3)[GlcNAc(b1-4)][GlcNAc(b1-2)Man(a1-6)]Man(b1-4)GlcNAc(b1-4)GlcNAc
# Summary of the method: as §1
# [24] = biological target: GlcNAc(b1-2)[GlcNAc(b1-4)]Man(a1-3)[GlcNAc(b1-4)][GlcNAc(b1-2)[GlcNAc(b1-6)]Man(a1-6)]Man(b1-4)GlcNAc(b1-4)GlcNAc
# Summary of the method: as §1
# [25] = biological target: GlcNAc(b1-2)[GlcNAc(b1-4)]Man(a1-3)[GlcNAc(b1-4)][GlcNAc(b1-2)[GlcNAc(b1-6)]Man(a1-6)]Man(b1-4)GlcNAc(b1-4)[Fuc(a1-6)]GlcNAc
# Summary of the method: as §1
# [26] = biological target: GlcNAc(b1-2)[GlcNAc(b1-6)]Man(a1-6)[GlcNAc(b1-2)Man(a1-3)]Man(b1-4)GlcNAc(b1-4)GlcNAc
# Summary of the method: as §1
# [27] = biological target: GlcNAc(b1-2)[GlcNAc(b1-6)]Man(a1-6)[GlcNAc(b1-2)Man(a1-3)]Man(b1-4)GlcNAc(b1-4)[Fuc(a1-6)]GlcNAc
# Summary of the method: as §1
# [28] = biological target: GlcNAc(b1-2)[GlcNAc(b1-6)]Man(a1-6)[GlcNAc(b1-4)][GlcNAc(b1-2)Man(a1-3)]Man(b1-4)GlcNAc(b1-4)GlcNAc
# Summary of the method: as §1
# [29] = biological target: GlcNAc(b1-3)Fuc
# Summary of the method: as §1
# [30] = biological target: GlcNAc(b1-3)Gal
# Summary of the method: as §1
# [31] = biological target: GlcNAc(b1-3)Gal(b1-3)GalNAc
# Summary of the method: as §1
# [32] = biological target: GlcNAc(b1-3)Gal(b1-4)Glc
# Summary of the method: as §1
# [33] = biological target: GlcNAc(b1-3)Gal(b1-4)GlcNAc
# Summary of the method: as §1
# [34] = biological target: GlcNAc(b1-3)Gal(b1-4)GlcNAc(b1-2)Man(a1-3)[GlcNAc(b1-3)Gal(b1-4)GlcNAc(b1-2)Man(a1-6)]Man(b1-4)GlcNAc(b1-4)GlcNAc
# Summary of the method: as §1
# [35] = biological target: GlcNAc(b1-3)Gal(b1-4)GlcNAc(b1-2)Man(a1-3)[GlcNAc(b1-3)Gal(b1-4)GlcNAc(b1-2)Man(a1-6)]Man(b1-4)GlcNAc(b1-4)[Fuc(a1-6)]GlcNAc
# Summary of the method: as §1
# [36] = biological target: GlcNAc(b1-3)Gal(b1-4)GlcNAc(b1-2)[GlcNAc(b1-3)Gal(b1-4)GlcNAc(b1-6)]Man(a1-6)[GlcNAc(b1-3)Gal(b1-4)GlcNAc(b1-2)Man(a1-3)]Man(b1-4)GlcNAc(b1-4)GlcNAc
# Summary of the method: as §1
# [37] = biological target: GlcNAc(b1-3)Gal(b1-4)GlcNAc(b1-3)Gal(b1-4)GlcNAc
# Summary of the method: as §1
# [38] = biological target: GlcNAc(b1-3)Gal(b1-4)GlcNAc(b1-3)Gal(b1-4)GlcNAc(b1-2)Man(a1-3)[GlcNAc(b1-3)Gal(b1-4)GlcNAc(b1-3)Gal(b1-4)GlcNAc(b1-2)Man(a1-6)]Man(b1-4)GlcNAc(b1-4)GlcNAc
# Summary of the method: as §1
# [39] = biological target: GlcNAc(b1-3)Gal(b1-4)GlcNAc(b1-3)Gal(b1-4)GlcNAc(b1-2)Man(a1-3)[GlcNAc(b1-3)Gal(b1-4)GlcNAc(b1-3)Gal(b1-4)GlcNAc(b1-2)Man(a1-6)]Man(b1-4)GlcNAc(b1-4)[Fuc(a1-6)]GlcNAc
# Summary of the method: as §1
# [40] = biological target: GlcNAc(b1-3)Gal(b1-4)GlcNAc(b1-3)Gal(b1-4)GlcNAc(b1-2)[GlcNAc(b1-3)Gal(b1-4)GlcNAc(b1-3)Gal(b1-4)GlcNAc(b1-6)]Man(a1-6)[GlcNAc(b1-3)Gal(b1-4)GlcNAc(b1-3)Gal(b1-4)GlcNAc(b1-2)Man(a1-3)]Man(b1-4)GlcNAc(b1-4)[Fuc(a1-6)]GlcNAc
# Summary of the method: as §1
# [41] = biological target: GlcNAc(b1-3)Gal(b1-4)GlcNAc(b1-3)Gal(b1-4)GlcNAc(b1-3)Gal(b1-4)GlcNAc(b1-2)Man(a1-3)[GlcNAc(b1-3)Gal(b1-4)GlcNAc(b1-3)Gal(b1-4)GlcNAc(b1-3)Gal(b1-4)GlcNAc(b1-2)Man(a1-6)]Man(b1-4)GlcNAc(b1-4)GlcNAc
# Summary of the method: as §1
# [42] = biological target: GlcNAc(b1-3)Gal(b1-4)GlcNAc(b1-3)Gal(b1-4)GlcNAc(b1-3)Gal(b1-4)GlcNAc(b1-2)Man(a1-3)[GlcNAc(b1-3)Gal(b1-4)GlcNAc(b1-3)Gal(b1-4)GlcNAc(b1-3)Gal(b1-4)GlcNAc(b1-2)Man(a1-6)]Man(b1-4)GlcNAc(b1-4)[Fuc(a1-6)]GlcNAc
# Summary of the method: as §1
# [43] = biological target: GlcNAc(b1-3)Gal(b1-4)GlcNAc(b1-3)Gal(b1-4)GlcNAc(b1-3)Gal(b1-4)GlcNAc(b1-2)[GlcNAc(b1-3)Gal(b1-4)GlcNAc(b1-3)Gal(b1-4)GlcNAc(b1-3)Gal(b1-4)GlcNAc(b1-6)]Man(a1-6)[GlcNAc(b1-3)Gal(b1-4)GlcNAc(b1-3)Gal(b1-4)GlcNAc(b1-3)Gal(b1-4)GlcNAc(b1-2)Man(a1-3)]Man(b1-4)GlcNAc(b1-4)[Fuc(a1-6)]GlcNAc
# Summary of the method: as §1
# [44] = biological target: GlcNAc(b1-3)Gal(b1-4)GlcNAc(b1-3)Gal(b1-4)GlcNAc(b1-3)Gal(b1-4)GlcNAc(b1-3)Gal(b1-4)GlcNAc(b1-2)Man(a1-3)[GlcNAc(b1-3)Gal(b1-4)GlcNAc(b1-3)Gal(b1-4)GlcNAc(b1-3)Gal(b1-4)GlcNAc(b1-3)Gal(b1-4)GlcNAc(b1-2)Man(a1-6)]Man(b1-4)GlcNAc(b1-4)GlcNAc
# Summary of the method: as §1
# [45] = biological target: GlcNAc(b1-3)Gal(b1-4)GlcNAc(b1-3)Gal(b1-4)GlcNAc(b1-3)Gal(b1-4)GlcNAc(b1-3)Gal(b1-4)GlcNAc(b1-2)Man(a1-3)[GlcNAc(b1-3)Gal(b1-4)GlcNAc(b1-3)Gal(b1-4)GlcNAc(b1-3)Gal(b1-4)GlcNAc(b1-3)Gal(b1-4)GlcNAc(b1-2)Man(a1-6)]Man(b1-4)GlcNAc(b1-4)[Fuc(a1-6)]GlcNAc
# Summary of the method: as §1
binder,measurement,setting,value
"Apa (Mycobacterium tuberculosis), Rv1860 (protein) MHQVDPNLTRRKGRLAALAIAAMASASLVTVAVPATANADPEPAPPVPTTAASPPSTAAAPPAPATPVAPPPPAAANTPNAQPGDPNAAPPPADPNAPPPPVIAPNAPQPVRIDNPVGGFSFALPAGWVESDAAHFDYGSALLSKTTGDPPFPGQPPPVANDTRIVLGRLDQKLYASAEATDSKAAARLGSDMGEFYMPYPGTRINQETVSLDANGVSGSASYYEVKFSDPSKPNGQIWTGVIGSPAANAPDAGPPQRWFVVWLGTANNPVDKGAAKALAESIRPLVAPPPAPAPAPAEPAPAPAPAGEVAPTPTTPTPQRTLPA",glycan array binding signal (z-score),[1],2.25
same,glycan array binding signal (z-score),[2],-0.327
same,glycan array binding signal (z-score),[3],-0.094
same,glycan array binding signal (z-score),[4],-0.203
same,glycan array binding signal (z-score),[5],1.05
same,glycan array binding signal (z-score),[6],0.208
same,glycan array binding signal (z-score),[7],0.468
same,glycan array binding signal (z-score),[8],-0.768
same,glycan array binding signal (z-score),[9],-0.652
same,glycan array binding signal (z-score),[10],-0.417
same,glycan array binding signal (z-score),[11],-0.514
same,glycan array binding signal (z-score),[12],-0.68
same,glycan array binding signal (z-score),[13],-0.339
same,glycan array binding signal (z-score),[14],-0.361
same,glycan array binding signal (z-score),[15],0.269
same,glycan array binding signal (z-score),[16],-0.564
same,glycan array binding signal (z-score),[17],-0.424
same,glycan array binding signal (z-score),[18],-0.174
same,glycan array binding signal (z-score),[19],0.431
same,glycan array binding signal (z-score),[20],-0.088
same,glycan array binding signal (z-score),[21],-0.607
same,glycan array binding signal (z-score),[22],-0.083
same,glycan array binding signal (z-score),[23],-0.159
same,glycan array binding signal (z-score),[24],-0.32
same,glycan array binding signal (z-score),[25],-0.482
same,glycan array binding signal (z-score),[26],-0.129
same,glycan array binding signal (z-score),[27],0.365
same,glycan array binding signal (z-score),[28],-0.589
same,glycan array binding signal (z-score),[29],0.318
same,glycan array binding signal (z-score),[30],0.516
same,glycan array binding signal (z-score),[31],-0.548
same,glycan array binding signal (z-score),[32],-0.125
same,glycan array binding signal (z-score),[33],-0.272
same,glycan array binding signal (z-score),[34],-0.21
same,glycan array binding signal (z-score),[35],-0.101
same,glycan array binding signal (z-score),[36],0.203
same,glycan array binding signal (z-score),[37],-0.583
same,glycan array binding signal (z-score),[38],0.234
same,glycan array binding signal (z-score),[39],-0.096
same,glycan array binding signal (z-score),[40],0.517
same,glycan array binding signal (z-score),[41],0.106
same,glycan array binding signal (z-score),[42],0.005
same,glycan array binding signal (z-score),[43],0.097
same,glycan array binding signal (z-score),[44],0.089
same,glycan array binding signal (z-score),[45],-0.366
